# Laboratory results taken from the supplement of paper PMC10115384.
# Human monoclonal antibodies (heavy:light variable regions, translated from the printed DNA). IC50 against SARS-CoV-2 spike pseudoviruses, on VSV particles in 293T-ACE2 cells (24 h) or MLV particles in HeLa-ACE2 cells (72 h); lower = stronger; >1.0 µg/ml as printed. No active / inactive call per row; the paper counts an IC50 of 0.4 µg/ml or less on any variant as neutralizing. Only 98 of the paper's 459 antibodies have neutralization values; the two systems are not on one scale.
# Biological target: SARS-CoV-2 index (Wuhan-Hu-1) spike pseudovirus
# Test: pseudovirus neutralization IC50; higher = weaker neutralization
# Conditions: system: VSV particle, 293T-ACE2 cells
# Method: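 Single-round reporter pseudovirus mixed with dilutions of yeast-made human IgG and put on ACE2-bearing cells; IC50 from the dose curve.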
row,Binder,pseudovirus neutralization IC50 [µg/mL]
1,ADI-67968 (protein) chain 1: QVQLVQSGAEAKKPGASVKVSCKASGYTFTDYYLHWVRQAPGQGLEWMGIINPSGGSIAYAQKFQDRVTLTRDTSTSTVYMKLSSLRSEDTAVYYCARDLAVVPAALGLDYWGQGTLVTVSS chain 2: EIVLTQSPATLSLSPGERATLSCRASQSVSTYLAWYQQKPGQAPRLLIYDASNRATGIPARFSGSGSGTHFTLTISSLEPEDFAVYYCQQRNNWPPFTFGPGTKVDIK,> 1
2,ADI-67133 (protein) chain 1: QVQLVESGGGVVQPGRSLRLSCAASGFPFNNYAMHWVRQAPGKGPEWVAVISYDGSNKYYGDSVKGRFTISRDNSKSTLYLQMDSLRTEDTAVYYCAKGLSYGYVYFFDYWGQGTLVTVSS chain 2: DIQMTQSPSSLSASVGDRVTITCQASQDITNYLNWYQQKPGKAPKLLIYDASDLETGVPLRFSGSGSGTDFTFTISSLQHEDIATYYCQQYNNLPITFGQGTRLEIK,0.527
3,ADI-67475 (protein) chain 1: EVQLLESGGGLVQPGGSLRLSCAASGFTFSSHAMTWVRQAPGKGLQWVSTISTSGDDTFYADSLKGRITISRDNSRNTLYLEMNSLRGEDTAVYYCAKGSSGAYPGSRTFDIWGQGTMVTVSS chain 2: DIVMTQSPDSLAVSLGERATINCKSSQNVLYSSNNKNCLAWYQQKPGQPPNLLIYWASTRESGVPDRFSGSGSGTDFTLTISSLQAEDVAVYYCQQYCRTPYTFGQGTKLEIK,> 1
4,ADI-67122 (protein) chain 1: EVQLVESGGGLVQPGGSLRLSCIVSEFTFDSYWMSWVRQAPGKGLEWVANIRHDGSEKYYVDSVRGRFTISRDNAKNSLYLQMNSLRAEDSAVYYCARQSIYHDFTSGVGYSYYYTMDVWGQGTTVTVSS chain 2: SSELTQDPPVSVALGQTVTITCQGDSLRIYFATWYRQKAGQAPVLVIYGKNNRPSGIPDRFSGSRSGDTASLTITGAQAEDEADYYCSSRDRSGNSFVFGTGTKVTVL,> 1
5,ADI-67952 (protein) chain 1: QLQLQESGPGLVKPSETLSLTCTVSGASISSSSYYWGWIRQPPGKGLEWIGNIYYSGSTYYKASLKSRVTISVDTSKNQFSLKLNSVTAADTAVYFCARHLVPTFSYDSRGYSRIYPYWYFDLWGRGTLVTVSS chain 2: QSALTQPASVSGSPGQSITISCTGTSSDIGSYNLVSWYRQHPGKAPELLIYDVNKRPSGVSNRFSGSKSGNTASLTISGLQDEDEADYYCCSYAGSGTFVLFGGGTKLTVL,> 1
6,ADI-67217 (protein) chain 1: QVQLVQSGAEVKRPGASVKVSCKVSGYTLTELSIHWVRQAPGKGLEWMGGFDPEDAETIYAQNFQGRVTMTEDTSTDTAYMDLRSLRSDDTAVYYCATAFAVRLGELSSYSYYYGMDVWGQGTTVTVSS chain 2: DIVMTQTPLSSPVTLGQPASISCRSNQSLVHTDGNTYLSWLHQRPGQPPRLLIYMISNRFSGVPDRFSGSGAETDFTLKISRVEAEDVGVYYCMQARHFPHTFGQGTKVEIK,> 1
7,ADI-67120 (protein) chain 1: QVQLVESGGGAVQPGRSLRLSCAASGFTFSNYGMHWVRQAPGKGLEWVAVMSYDGGDKHYADSVKGRFTISRDNSMHTLYLQMNSLRPEDTAVYYCAKAGYGYAYPWTYFDYWGQGTLVTVSS chain 2: DIQMTQSPSTLSASVGDRVTITCRASQSISTWLAWYQQKPGKAPKLLIYEASGLESGVPSRFSGSGSGTEFTLTITSLQPDDFATYYCQQYNSYWTFGQGTKVEIK,> 1
8,ADI-67216 (protein) chain 1: QVQLQESGPGLVKPSQTLSLTCTVSGGSISSGGYYWTWIRQHPGKGLEWIGYIYYSGTTYYNPSLKSRVIISVDTSKNQFSLRLNSVTAADTAVYFCARGSSWRYNWFDPWGQGTLVTVSS chain 2: SYELTQPPSVSVSPGQTASITCSGDKLGDKYACWYQQKPGQSPVLVIFEDNKRPSGIPERFSGANSGNTATLTISGTQAMDEADYYCQAWDSSTVIFGGGTKLTVL,> 1
9,ADI-67132 (protein) chain 1: EVQLVESGGGLVQPGGSLRLSCAASGFTFSSYDMHWVRQATGKGLEWVSLIGTAGDTYYPDSVKGRFTISRENAKNSLYLQMNSLRAGDTAVYYCARATTNMVRGVSPLDYYYGMDVWGQGTTVTVSS chain 2: DIQMTQSPSSLSASVGDRVTITCRASQSISSYLNWYQQKPGKGPKLLIYAASSLQSGVPSRFSGSGSGTDFTLTISSLQPEDFATYYCQQSYNIPPITFGQGTRLEIK,> 1
10,ADI-67136 (protein) chain 1: QITLKESGPTLVKPTQTLTLTCTFSGFSLSSNGVGVGWIRQPPGKALEWLALIYWNDEKRYSPSLKSRLTITKDTSKNHVVLTVTNMDPVDTATYSCAHSYYYDARGYCFDYWGQGTLVTVSS chain 2: DIQMTQSPSSVSASVGDRVTITCRASQGIVSWLAWYQQKPGKAPKLLIYDASTLQSGVPSRFSGSGSGTDFTLTISSLQPEDFATYYCQQANNFPITFGQGTRLEIK,> 1
